For 41 compounds, relative growth results are on record in the supplement of paper PMC9446081.

Hit rate of the full screen: of about 39,000 compounds, about 220 (0.56%) showed activity. Some of the results follow.
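Further: static incubation at 37 °C against the wild-type strain, values averaged over two biological replicates.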

This experiment has as its system Escherichia coli K-12 BW25113. Description: relative growth (OD600 normalised to plate interquartile mean) (fraction); higher = less growth inhibition, active = 0.2 or less. As to conditions: 50 µM; LB; incubation time: overnight (16-24 h).
For the compound `O=C(C[C@@H]1CC[C@@H]2[C@H](COC[C@H](O)CN2C(=O)c2cccnc2)O1)NCc1ccc(-c2ccccc2)cc1`, the relative growth was inactive: 0.98.
As to `COc1oc(C(=O)NC2CCCCC2)c(-c2ccc(Cl)cc2)c1S(=O)(=O)c1ccc(Cl)cc1`, the relative growth is inactive: 0.976.
As for `Cc1noc(C)c1NC(=O)N(C)C[C@H]1Oc2c(NC(=O)C3CC3)cccc2C(=O)N([C@H](C)CO)C[C@@H]1C`, the relative growth is inactive: 1.
With `C[C@H]1CCCCO[C@H](CN(C)CC2CC2)[C@@H](C)CN([C@@H](C)CO)C(=O)c2cc(NC(=O)Nc3ccc(C(F)(F)F)cc3)ccc2O1` the figure was inactive: 0.921.
With `Cc1ccc(S(=O)(=O)N(C)C[C@H]2Oc3ccc(NS(=O)(=O)c4cn(C)cn4)cc3CC(=O)N([C@H](C)CO)C[C@@H]2C)cc1` the figure was inactive: 1.02; with `COc1ccc(C#Cc2ccc3c(c2)O[C@@H](CN(C)C(C)=O)[C@H](C)CN([C@@H](C)CO)S3(=O)=O)cc1`, inactive: 1.03.
With `Cc1noc(C)c1NC(=O)N(C)C[C@H]1Oc2c(NC(=O)Nc3cccc4ccccc34)cccc2C(=O)N([C@H](C)CO)C[C@H]1C` the figure was inactive: 1.02; with `Cn1cnc(CCNC(=O)C[C@@H]2CC[C@@H]3[C@H](COC[C@H](O)CN3C(=O)C3CC3)O2)c1`, inactive: 0.964; with `Cc1ccc(S(=O)(=O)N[C@@H](Cc2ccccc2)C(=O)NCCCn2cc(CCC(=O)NO)nn2)cc1`, inactive: 1.
On to `COc1ccc(N)nc1`, for which the relative growth was inactive: 1.04.
With `C[C@@H]1CN([C@H](C)CO)C(=O)CCCn2nncc2CO[C@H]1CN(C)C(=O)CCCN(C)C` the figure was inactive: 0.982; with `COCC(=O)Nc1ccc2c(c1)C(=O)N(C)C[C@@H](OC)[C@@H](C)CN(C(=O)c1ccccc1F)[C@H](C)CO2`, inactive: 0.991.
Consider `N[C@H](Cc1cnc[nH]1)C(=O)O`, for which the relative growth is inactive: 0.982.
To `C[C@@H]1CN([C@H](C)CO)C(=O)c2cc(NC(=O)CCC(F)(F)F)ccc2O[C@@H](C)CCCCO[C@H]1CN(C)C(=O)C1CCCCC1` belongs inactive: 0.943.
To `COc1ccc(-n2cc(C(=O)NO)nn2)cc1` belongs inactive: 1.01; to `CO[C@@H]1CN(C)C(=O)c2ccc(NS(=O)(=O)CC(F)(F)F)cc2OC[C@H](C)N(C(=O)c2ccc3c(c2)OCO3)C[C@H]1C`, inactive: 1.01.
For the compound `COc1ccc(NC(=O)N(C)C[C@H]2OCCCC[C@@H](C)Oc3ccc(NC(=O)CCC(F)(F)F)cc3C(=O)N([C@@H](C)CO)C[C@H]2C)cc1`, the relative growth is inactive: 0.953.
To `C[C@H]1CCCCO[C@H](CN(C)Cc2ccc3c(c2)OCO3)[C@@H](C)CN([C@@H](C)CO)C(=O)c2cc(NC(=O)Nc3ccc4c(c3)OCO4)ccc2O1` belongs inactive: 1; to `Cc1noc(C)c1S(=O)(=O)Nc1ccc2c(c1)C(=O)N([C@H](C)CO)C[C@H](C)[C@@H](CN(C)Cc1ccc(-c3ccccc3)cc1)O2`, inactive: 0.961; to `OC[C@H]1CN(Cc2ccccc2)CCO1`, inactive: 0.999.
As for `C[C@@H]1CN([C@@H](C)CO)C(=O)c2cc(Br)cnc2O[C@@H]1CN(C)S(=O)(=O)c1ccccc1`, the relative growth was inactive: 0.997.
To `C[C@H]1CN([C@@H](C)CO)C(=O)c2cc(NC(=O)Cn3cnnn3)ccc2O[C@H]1CN(C)Cc1ccc(Cl)c(Cl)c1` belongs inactive: 0.962.
To `C[C@@H]1CCCCO[C@@H](CN(C)CC2CC2)[C@H](C)CN([C@@H](C)CO)C(=O)c2cc(NC(=O)C3CCCCC3)ccc2O1` belongs inactive: 0.993.
With `C[C@@H]1CCCCO[C@H](CN(C)S(=O)(=O)c2ccc(Cl)cc2)[C@H](C)CN([C@@H](C)CO)C(=O)c2cc(NC(=O)NC3CCCCC3)ccc2O1` the figure was inactive: 1.04.
With `CNC(=O)c1ccc(CO)cc1`, the relative growth was inactive: 1.03.
To `C[C@H](CO)N1C[C@H](C)[C@@H](CN(C)S(=O)(=O)c2cccs2)Oc2c(NS(=O)(=O)c3ccccc3)cccc2C1=O` belongs inactive: 1.02.
To `CCC(C)(C)c1ccc(CC(C)CN2CC(C)OC(C)C2)cc1.Cl` (stereo unspecified) belongs inactive: 1.13; to `CC(C)(C)C(=O)OCOP(=O)(OCOC(=O)C(C)(C)C)C(C)(Oc1ccc(O)cc1)P(=O)(OCOC(=O)C(C)(C)C)OCOC(=O)C(C)(C)C`, inactive: 1.1.
With `O=C(CCCCCCC(=O)Nc1ccc([C@@H]2O[C@H](CSc3nc(-c4ccccc4)c(-c4ccccc4)o3)C[C@H](c3ccccc3)O2)cc1)NO` the figure was inactive: 0.991.
On to `O=C(Cc1ccncc1)Nc1ccc2c(c1)[C@@H]1C[C@H](CC(=O)N3CCc4ccccc4C3)O[C@@H](CO)[C@@H]1O2`, for which the relative growth was inactive: 1.
To `C[C@@H]1CN([C@@H](C)CO)C(=O)c2cc(NC(=O)Nc3ccccc3)ccc2O[C@@H](C)CCCCO[C@@H]1CN(C)C(=O)CCC(F)(F)F` belongs inactive: 0.995; to `C[C@H]1CN([C@@H](C)CO)C(=O)Cc2cc(NC(=O)Cc3cn(C)c4ccccc34)ccc2O[C@@H]1CN(C)C(=O)Nc1ccc(C(F)(F)F)cc1`, inactive: 1.01; to `Cc1noc(C[C@@H]2C[C@@H]3CN(S(C)(=O)=O)C[C@@H]3O2)n1`, inactive: 1.
With `COc1ccc(S(=O)(=O)N(C)C[C@@H]2Oc3ccc(NS(=O)(=O)c4ccc(F)cc4)cc3CC(=O)N([C@@H](C)CO)C[C@H]2C)cc1` the figure was inactive: 1.03.
To `Cc1noc(C)c1NC(=O)N(C)C[C@@H]1Oc2ccc(NS(=O)(=O)c3c(C)noc3C)cc2C(=O)N([C@@H](C)CO)C[C@@H]1C` belongs inactive: 0.983.
Take `C[C@H](CO)N1C[C@H](C)[C@H](CN(C)C(=O)Nc2ccc(C(F)(F)F)cc2)Oc2c(NC(=O)c3nc4ccccc4s3)cccc2C1=O`: the relative growth was inactive: 1.02.
Turning to `C[C@H](CO)N1C[C@H](C)[C@H](CN(C)S(=O)(=O)c2ccc(Cl)cc2)Oc2c(NS(=O)(=O)c3cn(C)cn3)cccc2C1=O`, the relative growth was inactive: 0.997.
As for `C[C@H]1COC(=O)[C@@H](Cc2ccc(F)cc2)CC=CC[C@@H](CC(=O)N(CCO)Cc2ccccc2)C(=O)N1`, the relative growth was inactive: 0.992.
To `Oc1c(Cl)cc(Cl)c(Cl)c1Cc1c(O)c(Cl)cc(Cl)c1Cl` belongs active: 0.0546.
To `O=Cc1ccc[nH]1` belongs inactive: 1.02.
With `Cc1c(N(C)C)c(=O)n(-c2ccccc2)n1C` the figure was inactive: 1.08.
